PubChem BioAssay AID1508623 (National Center for Advancing Translational Sciences (NCATS), 2021)
About 450 (0.94%) of roughly 48,000 compounds were called active. Roughly 19% stayed inconclusive and do not appear here. Calls follow the shape of the dose curve; as a rule, active = well fitted inhibition curve with a large enough effect; inconclusive = small, poorly fitted or top-dose-only effect; inactive = no such curve, though single readings can be large or run the other way. Some of the results follow.

test: Primary qHTS for Identification of Small Molecule Inhibitors of Huntingtin Promoter Activity; details: HEK293 HTT promoter firefly luciferase reporter (activity 0% = vehicle and -100% = no light), 24 h; series mostly up to 57.5 µM; activity change, negative = inhibition: at the top concentration; also: nearly all actives have a fitted effect of over 50% in size
Procedure, shortened: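 HEK293 Fluc reporter, 2,500 cells/well, 24 h pre-culture; cpds up to 57.5 uM final, 24 h 37 degrees C; Dual-Glo, 10 min RT; normalized vehicle = 0%, zero RLU = -100%.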
Potency is read from the fitted curve at half-maximal effect.

Activity change, negative = inhibition, inactive:
COc1ccccc1N1CCN(C(=O)CCn2nc(C)c(S(=O)(=O)N3CCCC3)c2C)CC1 -22.2%
O=C(Nc1nnc(C2CC(=O)N(c3ccc(Cl)cc3)C2)s1)c1ccco1 (stereo not given) -5.9%
O=C(Nc1ccc2[nH]c(=O)c(=O)[nH]c2c1)c1cccc(F)c1 4.31%
Cc1ccccc1C1=CCN(c2ncc(NC(=O)c3ccc(Cl)cc3)cc2C(=O)O)CC1 0.834%
Cc1nc2nc(SCC(=O)NCCc3ccc(Cl)cc3)nn2c(C)c1Cc1ccccc1Cl -10.4%
CC(=O)c1ccc(N2CCN(C(=O)CCn3cnc4onc(-c5ccc(F)cc5)c4c3=O)CC2)cc1 3.98%
O=C1CC(c2ccc(F)cc2)c2c(c3ccccc3[nH]c2=O)O1 (stereo not given) -4.6%
CCOC(=O)c1ccc(NC(=O)CSc2nccn2-c2cc(C)cc(C)c2)cc1 -23.4%
CCOc1ccccc1CNCc1c(C(=O)O)n(Cc2ccc(F)cc2)c2cc(C)ccc12 -7.92%
CC(=O)N(CC(O)CN(C(C)=O)c1c(I)c(C(=O)NCC(O)CO)c(I)c(C(=O)NCC(O)CO)c1I)c1c(I)c(C(=O)NCC(O)CO)c(I)c(C(=O)NCC(O)CO)c1I (stereo not given) 3.27%
CN1[C@H]2CC[C@H]1CC(OC(=O)c1c[nH]c3ccccc13)C2 (stereo not given in full) -12.7%
CCn1cc(C(=O)NCCc2ccc(C)cc2)c(=O)c2cc(S(=O)(=O)N3CCc4ccccc4C3)ccc21 -1.94%
Cc1ccc(-c2noc(-c3cc(-c4ccc(F)cc4)n[nH]3)n2)cc1 -11.6%
O=C(Nc1c(-c2ccccc2)nc2ccccn12)c1ccccc1F -16.3%
Cc1cc(C)cc(NC(=O)CNS(=O)(=O)c2ccc3nc(C)sc3c2)c1 -15.7%
CN1C(=O)Cc2cc(S(=O)(=O)CCC(=O)Nc3ccc(OC(F)(F)F)cc3)ccc21 -27.6%
Cc1ccc(NC(=O)CN2C(=O)c3ccccc3Sc3ccc(C(=O)N4CCOCC4)cc32)c(Cl)c1 -29%
CCc1cc2c(cc3c(=O)n(CC(=O)NCc4cc(Br)ccc4OC)ncn32)s1 -3.11%
CCN(CC)S(=O)(=O)c1ccc2oc(C(=O)Nc3cc(C)ccc3OC)c(C)c2c1 -8.62%
CCCCNC(=O)CN1C(=O)COc2ccc(S(=O)(=O)N3CCCCCC3)cc21 -11.5%
CCOc1ccc(-c2nnc(SCC(=O)c3ccccc3)n2-c2ccccc2)cc1 -5.79%
COC(=O)CNC(=O)N1CCN(S(=O)(=O)c2ccc3c(ccn3C)c2)CC1 -34.8%
COc1ccc(C(=O)Nc2ccc3oc(-c4ccc5ccccc5c4)nc3c2)cc1Br -4.4%
Cn1cccc1-c1cc2n(n1)CCC(=O)N2CCCC(=O)NCc1ccc(F)cc1 15.7%
Cc1cc(=O)[nH]c2nnc(SCc3ccc(C(F)(F)F)cc3)n12 -11.6%
Cc1ccc(NC(=O)c2ncoc2-c2ccco2)cc1Cl 47.8%
Cc1cccc(C)c1NC(=O)Cn1c(SCC(=O)NCc2ccccc2)nc2ccccc21 0%
COc1ccc2cc(CNc3ccc(OC)c(OC)c3)c(=O)n(CC(=O)Nc3ccccc3F)c2c1 -24.3%
CCOC(=O)c1[nH]c(C)c(CCC(=O)Nc2cccc(SC)c2)c1C -31.7%
O=C(Nc1cc2ccc(O)cc2oc1=O)c1ccccc1 22.5%
CC(C)CCNC(=O)c1ccc2c(c1)N(Cc1ccccc1F)C(=O)c1ccccc1S2(=O)=O -21.7%
Fc1cccc(Cl)c1CNCCSc1nnnn1-c1ccccc1 -9.48%
COc1cccc(C(=O)N(Cc2ccco2)c2ccccn2)c1 -13%
O=C(CNC(=O)c1ccccc1F)OCc1cc(=O)n2nc(C3CCCCC3)sc2n1 6.37%
CCOc1cccc(C(=O)Nc2nnc(S(=O)(=O)N(C)c3ccc(C)cc3)s2)c1 -25.3%
COc1ccc(S(=O)(=O)N(CC(=O)Nc2ccc(OC)cc2OC)c2ccc(Cl)cc2)cc1 -29.8%
CCN1C(=O)c2ccccc2S(=O)c2ccc(C(=O)NCc3ccc(C)cc3)cc21 (stereo not given) -23.6%
Cc1c(CNC2CCC(C)CC2)c(C(=O)O)c(C)n1Cc1ccccc1F (stereo not given) -12.5%
COc1ccc(/C=C(/C#N)c2nc(-c3cc4ccccc4oc3=O)cs2)cc1 -2.19%
CCC1CN(C(=O)Nc2ccccc2C(F)(F)F)c2ccccc2O1 (stereo not given) 0.199%
CCOc1ccccc1C1C(C(N)=O)=C(C)Nc2nc(-c3ccccc3Cl)nn21 (stereo not given) 2.53%
Cc1cccc(N2CC(c3nc4ccc(C)cc4[nH]3)CC2=O)c1 (stereo not given) -5.44%
O=C(NC1(C(F)(F)F)N=C(c2ccccc2)N(C2CCCCC2)C1=O)c1ccc(F)cc1 (stereo not given) -5.09%
Cc1cc(C)n(CCc2nc3c4ccccc4nc(SCc4ccc(Cl)cc4)n3n2)n1 0%
CCOc1ccc(NC(=O)CC2C(=O)N(c3ccc(C)cc3)C(=O)N2C2CCCCC2)cc1 (stereo not given) 12.7%
Cn1ccc2cc(S(=O)(=O)N3CCCC(C(=O)NCc4ccc(F)cc4)C3)ccc21 (stereo not given) -30.6%
C=CCSCC1Nc2cc(Cl)c(S(N)(=O)=O)cc2S(=O)(=O)N1 (stereo not given) -0.233%
Cc1cc(O)c2c(O)c3c(O)cccc3cc2c1 -4.15%
COC(=O)c1ccc(C2C=C(c3ccc(Cl)cc3)Nc3nc4ccccc4n32)cc1 (stereo not given) 22.7%
CCOc1ccccc1-c1noc(CCCC(=O)Nc2cccc(C(F)(F)F)c2)n1 -32.2%
N#Cc1cccc(NC(=O)C2CCN(c3cnccn3)CC2)c1 -22.7%
CC(=O)Nc1ccc(NC(=O)c2cc3c(=O)n(Cc4cccnc4)ccc3nc2C)cc1 1.79%
Cc1ccc(-n2nc3cc(C)c(NC(=O)COc4ccccc4)cc3n2)cc1 24%
Cc1ccc(C(=O)NCC(=O)OCc2cc(=O)n3c(C)csc3n2)cc1 -2.43%
CCOC(=O)CCN(c1ccccc1)S(=O)(=O)c1cc(-c2cc(C)no2)ccc1C -27.6%
CCc1cc2c(cc3c(=O)n(CC(=O)NC4CCCCC4)nc(CC)n32)s1 0.245%
Cc1cc(C)c2oc(C(=O)Nc3c(C)n(C)n(-c4ccccc4)c3=O)cc(=O)c2c1 -3.78%
CC(=O)N1CCc2c(sc3c2c(=O)n(-c2ccccc2C)c(=O)n3CC(=O)c2ccccc2)C1 -16.8%
Cc1ccc(C)c(NC(=O)Cn2c(=O)n(-c3ccccc3C)c(=O)c3c2c2cc(C)ccc2n3C)c1 -15.8%
CC(C)n1cc2c(c1-c1ccccc1Cl)c(=O)n(C)c(=O)n2C -11.9%
Cc1cccc(C(=O)Nc2cccc(OCc3cc(=O)n4cc(C)sc4n3)c2)c1 12.3%
Cc1ccc(-n2cc3c(c2-c2ccccc2Br)c(=O)n(C)c(=O)n3C)cc1N -7.22%
COc1ccccc1N1CCN(CCCNC(=O)c2nnc(Cc3c(F)cccc3Cl)o2)CC1 -25.6%
COc1ccccc1C(=O)Nc1c(C(=O)N2CCN(c3ccc(F)cc3)CC2)oc2ccccc12 -11.8%
CCN1CCN(CCCNC(=O)Cn2c(-c3cccs3)cc3ccccc32)CC1 -19.3%
Cc1ccc2c(=O)cc(C(=O)N(Cc3ccccc3Cl)C3CCS(=O)(=O)C3)oc2c1 (stereo not given) 19%
COc1ccc(-c2cc(-c3ccccc3)c(C#N)c(SCC(O)CS(=O)(=O)Cc3ccccc3)n2)cc1 (stereo not given) -25.8%
CC(O)CNC(=O)C(=O)Nc1c2c(nn1-c1ccc(Cl)cc1)CSC2 (stereo not given) -21.6%
COC(=O)c1ccc(NC(=O)CCc2c(C)nn(-c3ccc(N4CCOCC4)nn3)c2C)cc1 -5.26%
COc1ccccc1-c1nc2c(c(SCc3ccc(F)cc3Cl)n1)Cc1c(CO)cnc(C)c1O2 -4.84%
CCc1cccc(NC(=O)Cn2c(=O)c(C(F)(F)F)nc3ccccc32)c1 -5.89%
Cc1cccc(CSc2nc3cc(C(=O)NC4CCCC4)ccc3c(=O)n2Cc2ccccc2)c1 5.26%
NC(=O)c1cccc(N)c1 6.47%
Cc1cc(C)c2c(=O)cc(C(=O)Nc3nc4ccc(F)cc4s3)oc2c1 17%
Cc1ccc(C(=O)Oc2ccc(C(O)CNC(C)(C)C)cc2OC(=O)c2ccc(C)cc2)cc1 (stereo not given) 1.57%
CCCCNC(=O)c1cccc(-n2cnc3cccnc32)c1C -17.3%
Cc1cc(N(C)Cc2ccccc2)n2nc(-c3ccc(C(C)(C)C)cc3)nc2n1 -9.24%
Cc1ccc(-n2nc(C(C)(C)C)cc2NC(=O)Nc2ccc(OCCN3CCOCC3)c3ccccc23)cc1
COc1ccc(OCCn2nnc3sc4c(c3c2=O)CCC(C(C)(C)C)C4)cc1 (stereo not given) -2.63%
CC1CCN(c2nc3c(-c4cccc(Br)c4)nnn3c3ccccc23)CC1 -13.2%
CCc1ccc(-n2nc3cc(C)c(NC(=O)c4ccccc4C)cc3n2)cc1 17.6%
CCOc1ccc(-c2c(C)nn3c(C)c(C(=O)NCc4ccc(Cl)cc4)cnc23)cc1OCC -16.9%
CCC(NC(=O)Nc1cc(Cl)ccc1OC)c1c(-n2cccc2)sc2c1CCN(C)C2 (stereo not given) -24.3%
CCCCCn1c(=O)[nH]c2cc(C(=O)NCCN(C)CCCC)ccc2c1=O -6.17%
N=c1n(CCO)c2ccccc2n1Cc1ccccc1F -16%
O=C(CSc1c2c(nc3ccc(Cl)cc13)CCCC2)NCc1ccccc1Cl -5.52%
COc1ccc(Br)c(C(=O)Nc2cc3c(cc2N2CCCC2)n(C)c(=O)c(=O)n3C)c1 -7.83%
Cc1ccc(-c2cc(C(=O)OCC(=O)c3ccccc3)c3cccc(Cl)c3n2)cc1 -4.76%
CCC(Sc1nc2ccccc2c2nc(CCn3c(C)nc4ccccc43)nn12)C(=O)Nc1ccc(F)cc1 (stereo not given) -21%
CNC(=O)c1ccc(C)c(-n2c(C)cc(OCc3ccc(F)cc3F)c(Br)c2=O)c1 -7.91%
Cc1ccc2oc(=O)c3cc(C(=O)N(Cc4ccccc4)C(C)C)sc3c2c1 -10.7%
Cc1ccc(CN2c3ccccc3S(=O)(=O)c3ccccc32)cc1 -27%
Cc1ccc(NC(=O)Cn2c(-c3ccc4c(c3)OCO4)cn(-c3ccccc3)c2=O)cc1 19.8%
Cc1ccc2c(c1)c1c(c(=O)n(Cc3ccccc3)c(=O)n1CC(=O)Nc1ccccc1C)n2C -5.49%

Potency, active:
O=C(Nc1ccc(F)cc1)c1ccc(Cn2nc(N3CCN(c4ccccc4)CC3)ccc2=O)o1 14.1 µM
